# The supplement of paper PMC3334620
# Whole data set: some 33,000 sequences, median “E-score (-0.5 to 0.5)” near -0.054, cut for the highest 2% near 0.39. The list shows a part of the results.
# Target: Ylr278c (UniProt Q05854)
# Assay: PBM E-score (8-mer binding enrichment) (E-score (-0.5 to 0.5)); higher = stronger / more preferred TF binding; most listed sequences are background and not binding sites
# Conditions: protein concentration: 200 nM; construct: GST-DNA-binding domain
# Method in brief: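 Full-length yeast transcription factors or their DNA-binding domains, GST-tagged and expressed with PURExpress, were applied at about 100-200 nM to universal all-10-mer Agilent arrays. These arrays had been made double-stranded by primer extension on fresh or once-stripped slides. Detection used fluorescent anti-GST, normalisation used masliner, and E-scores for ungapped eight-base words pooled with reverse complements came from the Universal PBM Analysis Suite.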
row,Sequence,PBM E-score
1,ATTTCAGG,0.0318
2,GCCATTGA,0.0686
3,CCAACTTA,0.0436
4,GAAGCTGC,-0.17
5,AAGACTAA,-0.00975
6,ATGTCACA,-0.242
7,TGATGGAA,-0.179
8,AATGTGAG,-0.264
9,GTTTAAAA,-0.0825
10,AGAATGCG,0.0983
11,AGCAGCCG,0.0227
12,TCAGCCAA,-0.183
13,ATCTCGCA,-0.0496
14,CGACTGCC,0.0706
15,ATTAAACG,-0.0237
16,ACAGCTCG,-0.093
17,GACCTTCA,-0.0306
18,CTAGTAAA,0.0822
19,ACAGGCGA,-0.186
20,CTATCGTC,-0.164
21,CTGGCTTC,-0.198
22,ACGAAAAC,0.0784
23,AAAGTCGT,-0.213
24,AAGCGGCT,0.188

row,Sequence,PBM E-score
1,ATCCCAAC,-0.141
2,CAAAACTG,-0.0958
3,AAGGACGT,-0.168
4,TATGGGGA,0.0927
5,ACATGCCG,0.264
6,TAGCGCTA,0.0433
7,ATCGGTAC,0.157
8,ATCATAGA,-0.0941
9,ATGCTTGG,-0.184
10,CTACGAGA,-0.136
11,ATCGATCC,-0.039
12,CATGCGCG,0.137
13,AAGAAGTC,0.101
14,AGAAGAGA,-0.112
15,ATTTTTCA,0.00958
16,CCTCCCCG,0.232
17,TAACCGCA,0.0534
18,AGGAATTA,0.0107
19,CGATCAAA,0.032
20,GGGTTAAA,-0.0115
21,AATGGAGC,-0.148
22,GGTCCGAC,0.39
23,CAGTTTCG,0.0435
24,CTTCTGTA,-0.0808

row,Sequence,PBM E-score
1,GCGACCGA,-0.0055
2,AACTTCCC,-0.0615
3,CGAGAAAG,0.0584
4,AAGTTTGC,0.00605
5,CGAGCAGA,-0.0726
6,GCCGCGGC,0.406
7,AACGCACA,-0.0138
8,ATCATGGA,-0.227
9,ATTTCCTC,0.182
10,CATAGCGG,0.22
11,AACTCGTA,-0.162
12,CGCTCTGC,0.0667
13,CAGATTCG,-0.0164
14,CCAGACCC,-0.15
15,ACCAGATG,-0.145
16,CCGAGGGA,0.155
17,CGGGCCCC,0.239
18,GGTGACAC,-0.0143
19,AGGCGCCA,-0.0124
20,GGGACTCA,-0.0868
21,TCGCACGA,-0.169
22,CCTGCTCC,0.119
23,AATCATGA,-0.132
24,TCAAGACA,0.0288

row,Sequence,PBM E-score
1,AGTTTGGC,-0.072
2,AATAAAAG,0.0144
3,CCAAGTCA,-0.0673
4,AAAAACTT,-0.107
5,CAAACAGG,-0.313
6,CAGCGGGC,0.102
7,CAGCTCCA,-0.152
8,AATACAAG,0.0239
9,CCGCCCCC,0.168
10,CTCGAAAC,-0.13
11,GCTTCATA,-0.0532
12,AAGCAAAA,-0.0914
13,CACACGGG,0.126
14,CTGTGGGA,-0.191
15,GCGATAGC,-0.142
16,TAGAGAAA,-0.0468
17,CTAATTTC,0.0625
18,CAAATACA,0.00083
19,AGCTCACC,-0.00625
20,AGTCCGAG,0.43
21,ACAACCAT,0.018
22,AGCACTGG,-0.158
